Experimental data as given in publication PMC12136788.
Some of the results follow.

B1: chr2:65473824:65473825:+_ENSG00000138071_ENST00000260641|hu_hu|motif|central (ssRNA)
RNA: GGGAGUUCUACAGUCCGACGAUCGUUUUUGGUUGGGUUCAUAGGAGGUUCUGUGAGUAAGAUUUUACAAUUUCUGGUAUCGGUAUUAAGUUUCUCUGGUCCAAAUGUGUAGUCCCACAGGUGUUUCAUGUCAUCCCAAUUUCGCAACAGAGGAUUGAGCAUCA
B2: chr12:104381838:104381839:+_ENSG00000139372_ENST00000392872|hu_mus|FALSE|FALSE (ssRNA)
RNA: GGGAGUUCUACAGUCCGACGAUCCAGUAAUCAACAGUAGUGACAAUAAUUUUUAAAUCAUUGACAAAUGAUUAGCUUUCCCUAGAAGAGAAGUUCUGUAUCAGUACAUCCCAUGUACACAGCACCAGUUUAAACAGGAUUAUCCAACAGAGGAUUGAGCAUCA
B3: 90459061_90459354_3698_CDS_ENSG00000112159_ENST00000369393|human|control|control (ssRNA)
RNA: GGGAGUUCUACAGUCCGACGAUCCCGAUUCCUGAAGGCUCUAGAAAGGACCUUUCUGCCUCCAUAAAGUCCUGGGGGAUUUUGGGUGGCAAAAAGCAUAAACCGAGGGUGUGCUUUAACAACUUCCUGUGUUUCUGUUACUAGCAACAGAGGAUUGAGCAUCA
B4: chr6:114281168:114281169:-_ENSG00000196591_ENST00000368632|hu_hu|hu_hu_hu_mus_True|68_68 (ssRNA)
RNA: GGGAGUUCUACAGUCCGACGAUCUUCCAUUUUUCGGUAUAAACCAUAAUUUAGCAGCAAGUUAUGAGUCAUGCGGAUUCUAUGAGGCUUCAUGGGAUGACCCUGGCCAUAAUAAUAAUUGCCAAUAUCACCAUCAUAGUAGUACAACAGAGGAUUGAGCAUCA
B5: chr19:16212804:16212805:+_ENSG00000167460_ENST00000300933|hu_mus|hu_hu_hu_mus_False|58_78 (ssRNA)
RNA: GGGAGUUCUACAGUCCGACGAUCAACAAUUCUGGAGUGAAGGAAAGAUGUAACAUGCAAUUAAUUAAAAGCUCAGUAUUACUAUAUAUGGGCAACAAUGAUCACCCCAGCAUUCUCGCUUGGAAUGCUUAAAGACAAUCUGUUCAACAGAGGAUUGAGCAUCA
B6: chr13:48919227:48919228:+_ENSG00000139687_ENST00000267163|hu_hu|motif|central (ssRNA)
RNA: GGGAGUUCUACAGUCCGACGAUCUUUGGUACUGGUAUCAAUUUCUUUUAGUAAGUUAAAGAAUUUAUGGACACUGAUUUCGGUGUUUUUCUGUAGCUCAGUAAAAGUGAACGACAUCUCAUCUAGGUCAACUGCUGCAAUAAACAACAGAGGAUUGAGCAUCA
B7: chr8:9988343:9988344:+_ENSMUSG00000040396_ENSMUST00000048216|mus_mus|FALSE|FALSE (ssRNA)
RNA: GGGAGUUCUACAGUCCGACGAUCUGUUUUUGUCAUGUCUUCGGGAGAAUGACUCUUGAUCACUUCCUUGAUAAAUUGUUCUAGUGCAGUGAAGUAGCCUUGGCACUGCCAUGUGUCGUUGUGCGUCCCAUCUGGGAAAAUGGCCAACAGAGGAUUGAGCAUCA
B8: chr11:118639009:118639010:-_ENSG00000110367_ENST00000264018|hu_hu|motif|central (ssRNA)
RNA: GGGAGUUCUACAGUCCGACGAUCUUCAAGUAAGGGAAUGAGGUAGGCACCGCUCUUGCCUGUUCCAUUUUUUGCUCGGGCGGAGAUAUCCCUACCAGAUAAAGCAAUGGGAAUGCUCUCCUCCUGAAUAGGAGAUGGCUUUUCCAACAGAGGAUUGAGCAUCA
B9: chr1:160305110:160305111:-_ENSG00000122218_ENST00000241704|hu_mus|FALSE|FALSE (ssRNA)
RNA: GGGAGUUCUACAGUCCGACGAUCUGAGGCGCUCAGAAUCCAAGGAUAUUCAUGAUGGAAAAACGUUGUACGGAUAUAAUCCAAGUGCCCGAGCAAUGUGAACAGGCAGCGCCGAAGUUUGUAAUUCCAAACCUUAAUCUUAUACAACAGAGGAUUGAGCAUCA
B10: chr1:109605286:109605287:-_ENSG00000197780_ENST00000461096|hu_mus|hu_hu_hu_mus_True|1_28 (ssRNA)
RNA: GGGAGUUCUACAGUCCGACGAUCAAGUUUCAGAGUAACAUUCAGUAACCUCUUUAAAUGCAAUUAUCCUUAUUAUAAGCUAAGCAGAAUAAUAAUUUAAUACCGUAAGUAAAUACAACACAAAGCCUGAACCGCGAAACUACACAACAGAGGAUUGAGCAUCA
B11: 90513150_90513270_281_CDS_ENSG00000112159_ENST00000369393|human|control|control (ssRNA)
RNA: GGGAGUUCUACAGUCCGACGAUCCCUUUCCAGCAAAUCCAAAAGGAGAGGGCGAAGCUGGCGACCAACCAGCACAGUACAGUCCUUAUCCAAAAGCAACUGUGCUAAGGUACUCAGGACACACUGGCGAUCUUGAGGUGUCCACAACAGAGGAUUGAGCAUCA
B12: chr2:34708205:34708206:-_ENSMUSG00000026869_ENSMUST00000028225|mus_mus|FALSE|FALSE (ssRNA)
RNA: GGGAGUUCUACAGUCCGACGAUCUUCACUUAGGUACGCUCUGAGCCUCAAAUAAUUUGAGUUCCCAAAGAUCUCUGCAACUGUCUUGGAAUUGGCAAGUGCUUUUACCAGUUCAUAUUUGGCAUCCUUUGAAGCUUUGUCAUGCAACAGAGGAUUGAGCAUCA
B13: chr13:43497316:43497317:+_ENSMUSG00000063200_ENSMUST00000071926|mus_mus|FALSE|FALSE (ssRNA)
RNA: GGGAGUUCUACAGUCCGACGAUCCAAACAAAAUAUGUUUAUGAUUUUUAUAAUGAUCCGUUACAAUGAUUUAUCAGUGACUAAAUUUUGAGAAAUGAACCCUCUCUGCACCCAGUAAUCUUAAACUAUGCAUGCAAAAUGCAGCAACAGAGGAUUGAGCAUCA
B14: chrX:71549400:71549401:+_ENSMUSG00000019087_ENSMUST00000019231|mus_hu|mus_mus_mus_hu_False|68_108 (ssRNA)
RNA: GGGAGUUCUACAGUCCGACGAUCGCAAGGAAGAGGAGGAAGCUCUUCAGUCCAGUGCGCUGCAGGGAGAAACAUGAACAACACGGACACCGUCCCACCCUCAACCCCCCCACUGGCACAGGGUCACACAAUCUGGGUCAAAGACAACAGAGGAUUGAGCAUCA
B15: chr19:2271408:2271409:+_ENSG00000104904_ENST00000602676|hu_mus|FALSE|FALSE (ssRNA)
RNA: GGGAGUUCUACAGUCCGACGAUCUGGGAUCUUCAGGGGUGGGUGAGGGACAUCGCACCACCGAGGCCCCGGACCCAGGUUACUACAGCAAUUAAGGGCAACCCUAGAACUCUCGCUGCUGCAGCCGCCGCGGCUGUGCUGACUCAACAGAGGAUUGAGCAUCA
B16: chr19:60949100:60949101:-_ENSMUSG00000024997_ENSMUST00000025961|mus_hu|FALSE|FALSE (ssRNA)
RNA: GGGAGUUCUACAGUCCGACGAUCACUGGAACCAGAACACAAUAAAUUUGUCAAGCUCGUUCUUCCACAUGCAGCAGGCCUGAGGGCUGCAGUGGCAGAAAUGCCCCAAGGAAUGGCACUCACAUGUCGGGCAACCGACGCUCGCAACAGAGGAUUGAGCAUCA
B17: 216299512_216300462_389_CDS_ENSG00000115414_ENST00000323926|human|control|control (ssRNA)
RNA: GGGAGUUCUACAGUCCGACGAUCUAUCUGAUAGUGUUUUCCAUUGUCAUAACAACCGGGCUUGCUUUGACUGACAGCCACCGGGGACUGGGGCUGAACCAUUUGCUGAGCCUGCCUCUUGCUCUUCGAGGCUCCCGUGGAGGGCAACAGAGGAUUGAGCAUCA
B18: chr7:90019461:90019462:+_ENSMUSG00000057706_ENSMUST00000082237|mus_mus|motif|central (ssRNA)
RNA: GGGAGUUCUACAGUCCGACGAUCCGUCACAAUCGUGUGAUUAUUAAAAUAAUACAGUGUUCUUUGCCAUAAGGCCAUACGGAAAAUAAAAAGAUUUAACCCAGCUACAAAAAAGUUCACUGAACUUAAAUUAAAAUACUUGUACAACAGAGGAUUGAGCAUCA
B19: 7871621_7871741_414_CDS_ENSMUSG00000024283_ENSMUST00000074919|mouse|control|control (ssRNA)
RNA: GGGAGUUCUACAGUCCGACGAUCACCGUCCCUUUCUCUAACUCUCUGAGUGUGCACGUUUUUGGCCUUGUUGUGACCUGUGCUGUCACUGUAUUUGUUUUCAGGACUAUUAGAUCUCCGCAACAUUUUGUUUGGUGGUGAAGGCAACAGAGGAUUGAGCAUCA
B20: chr7:141438946:141438947:+_ENSG00000106028_ENST00000265304|hu_mus|hu_hu_hu_mus_True|98_108 (ssRNA)
RNA: GGGAGUUCUACAGUCCGACGAUCGACUACCUGUAAUACAGGUCUUCCUUCGAAACAUGGCUUCUGUUUUUCUUACAACCUAAUCUUUAGGCUUUUCCUAAAGGAAAGAAAGAAAAGAGAAAAAUGAUAAAUCAAGAAACUACACAACAGAGGAUUGAGCAUCA
B21: chr4:62048941:62048942:+_ENSMUSG00000066150_ENSMUST00000084526|mus_hu|motif|central (ssRNA)
RNA: GGGAGUUCUACAGUCCGACGAUCUUGUGACUUACGCAGCAGGCUCUCUCGGGCUAUCUUGAGUCCUUCAUAGAACAUUGCGGGUAAAAACACUGCCACAAAAGCUCCAGCCAUUUCUCCAGCUGUAUUGAUCACCAAACCGGACAACAGAGGAUUGAGCAUCA
B22: chr1:163112212:163112213:-_ENSG00000143248_ENST00000313961|hu_hu|hu_hu_hu_mus_False|78_78 (ssRNA)
RNA: GGGAGUUCUACAGUCCGACGAUCUUUUAUUAUCAGUAAGAGUGAGUUACAUACUAGAUAAAGUAUUGGAUACAAUAAUCAGGAAACAAACACUAUUGGUCCAGAAUUUAAAACUUUAUGAGCGAAGUGCUGGCACAGGACUUACAACAGAGGAUUGAGCAUCA

Target: T1, UNK ZnF1-3 (human, UniProt Q9C0B0 31-174)
T1 sequence: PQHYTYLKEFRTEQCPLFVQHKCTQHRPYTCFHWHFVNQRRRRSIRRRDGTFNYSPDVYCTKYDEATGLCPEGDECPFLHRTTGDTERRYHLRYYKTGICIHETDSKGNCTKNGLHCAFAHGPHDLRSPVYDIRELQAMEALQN
Assay: nsRBNS (natural sequence RNA bind-n-seq); RBNS binding buffer (assumed for nsRBNS): 25 mM Tris pH 7.5, 150 mM KCl, 3 mM MgCl2, 0.01% Triton X-100, 500 ug/ml BSA, 20 U/ml SUPERase-In, 4 C; UNK is unkempt and MSI1 is Musashi-1; names of the RNAs are library labels; protein concentration not given here; high values mean tight binding

| Binder | binding signal [enrichment R] |
| --- | --- |
| B1 | 0.6 |
| B2 | 0.917 |
| B3 | 0.889 |
| B4 | 1.09 |
| B5 | 1.09 |
| B6 | 0.7 |
| B7 | 0.822 |
| B8 | 0.679 |
| B9 | 1.19 |
| B10 | 0.734 |
| B11 | 0.874 |
| B12 | 0.662 |
| B13 | 1.23 |
| B14 | 1.88 |
| B15 | 0.961 |
| B16 | 0.988 |
| B17 | 0.669 |
| B18 | 1.93 |
| B19 | 0.437 |
| B20 | 0.413 |
| B21 | 0.6 |
| B22 | 1.19 |
